# PubChem BioAssay AID686971 (National Center for Advancing Translational Sciences (NCATS), 2013)
# In all, about 360,000 compounds went through this assay and about 7,500 (2.1%) were called active. The inconclusive results got no clear call from the source; some entries with a clear call stand among them for comparison. Calls follow the shape of the dose curve; as a rule, active = well fitted cell-killing curve with a large enough effect; inconclusive = small, poorly fitted or top-dose-only effect, or effect the other way, or another doubt; inactive = no such curve, though single readings can be large or run the other way. Potencies of inconclusive entries are left out as doubtful fits.
# Test: qHTS for induction of synthetic lethality in tumor cells producing 2HG: qHTS for the HT-1080-IDH1KD cell line;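 as to activity, negative = toxicity: 0% = DMSO wells and -100% = cell-free medium wells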
# Settings: HT-1080 IDH1 knockdown viability, ATP luminescence, 48 h; activity, negative = toxicity: at 46.1 µM (top of the series) unless noted
# Procedure, shortened: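 Using the IDH1-knockdown HT-1080 line run in the same batch and compound series as the NT line, viability after 48 h at 37 °C was determined by CellTiter-Glo luminescence and expressed as % activity.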
# Potency is read from the fitted curve at half-maximal effect; tags tell the direction and shape of the fitted curve.
SMILES,"activity, negative = toxicity",Potency
O=C(Nc1cccc([N+](=O)[O-])c1)N1CCN(c2ccccc2)CC1,inactive: -3.9%,
CCOc1ccccc1NC(=O)CN1CCN(C(=O)C2CCCO2)CC1 (configuration not stated),inactive: 2.73%,
N/C(=N\OC(=O)c1cccc2ccccc12)c1ccncc1,inactive: -8.09%,
CCC(C)C1NC(=S)N(C2CCCCC2)C1=O (configuration not stated),,"inconclusive [cytotoxic, single point]"
COc1cccc(C(C)(O)c2nc(-c3csc4ccccc34)cs2)c1 (configuration not stated),,"inconclusive [cytotoxic, single point]"
COC(=O)c1cc2ccsc2n1CC(=O)Nc1cc(Cl)ccc1OC,,"inconclusive [cytotoxic, partial curve]"
COc1cc(C)c(CN2CCN(CC(=O)Nc3ccccc3C(=O)NC3CC3)CC2)cc1OC,inactive: 3.75%,
CC(=O)c1ccc(Nc2nc(C(N)Cc3ccc(C(F)(F)F)cc3)cs2)cc1 (configuration not stated),,"inconclusive [cytotoxic, single point]"
CN(CCCNC(=O)c1cc2c(Cl)nc3ccccc3c2s1)Cc1ccccc1,,active: 16.4 µM
C#Cc1ccc(NC(=O)C2(C)CCN2C(=O)C2(c3ccccc3)CC2)cc1 (configuration not stated),,"inconclusive [cytotoxic, single point]"
COc1cccc(-c2nc(-c3ccc4c(c3)-c3ccccc3S4(=O)=O)c(-c3ccccc3)[nH]2)c1OC,inactive: -4.45%,
O=C(CN1C(=O)NC2(CCCC2)C1=O)Nc1ccc(F)c([N+](=O)[O-])c1,inactive: -1.89%,
COc1ccc(NC(=O)Cn2nnc(C(=O)NCCc3ccccc3)c2N)cc1,,"inconclusive [cytotoxic, single point]"
CCCCOC(=O)/C=C/c1ccc(OC(=O)OC)c(OC(=O)OC)c1,,"inconclusive [cytotoxic, partial curve]"
O=C(N/N=C/c1c(O)ccc2ccccc12)c1[nH]ncc1Br,,"inconclusive [cytotoxic, full curve, poor fit]"
COc1ccc(CCNCc2ccccc2N2CCCC2)cc1,inactive: -28.5%,
CC(C)C1C(=O)N(Cc2cn(Cc3ccco3)nn2)CCS(=O)(=O)N1Cc1ccc(-c2ccccc2)cc1 (configuration not stated),,"inconclusive [cytotoxic, single point]"
C=C1C(=O)[C@]23C[C@H]1CCC2[C@]1(C)CCC[C@@](C)(C(=O)O)C1C[C@@H]3O (some centres not stated),,active: 2.31 µM
C/C=C(/C)C(=O)OC1c2c(ccc3ccc(=O)oc23)OC(C)(C)C1OC(=O)/C(C)=C\C (configuration not stated),,"inconclusive [cytotoxic, single point]"
COc1cc(/C=C(/C#N)c2nc3ccccc3c(=O)[nH]2)ccc1O,inactive: -0.0639%,
CCCCN(C(=O)COC(=O)C1(c2ccccc2)CC1)c1c(N)n(CCC)c(=O)[nH]c1=O,inactive: 4.19%,
CN(Cc1ccc(Cl)c(Cl)c1)C(c1cc2ccccc2o1)c1nnnn1C(C)(C)C (configuration not stated),,"inconclusive [cytotoxic, single point]"
Cc1cc(NC(=O)CSc2nnc(-c3c[nH]c4ccccc34)n2-c2ccc(Cl)cc2)no1,,active: 11.2 µM
O=C(O)c1ccc(CNCc2cccc(Oc3ccccc3)c2)cc1,,"inconclusive [rising, partial curve]"
COc1ccc(NC2=Nc3cccc4cccc2c34)cc1OC,inactive: -0.845%,
CN(C(=O)c1cccc(NC(=O)Cc2ccc(NC(=O)C3CCN(C(=O)C4CCCC4)CC3)cc2)c1)C1CCCCC1,,"inconclusive [cytotoxic, partial curve]"

SMILES,"activity, negative = toxicity",Potency
Cc1sc2ncnc(NC3CCN(Cc4ccccc4)CC3)c2c1C,,"inconclusive [cytotoxic, single point]"
CCOc1ccc(C(=O)Nc2nnc(C3=COCCO3)o2)cc1,inactive: -11.8%,
Cc1ccc(C(=O)Oc2coc(CSc3nnc(NC(=O)c4cccs4)s3)cc2=O)cc1,,"inconclusive [cytotoxic, partial curve]"
Cc1nn(Cc2c(F)c(F)c(F)c(F)c2F)c(C)c1NC(=O)c1nn(C)cc1[N+](=O)[O-],inactive: -21.8%,
CNC(=O)C1(C)Cc2c(-c3ccc4c(c3)OCO4)ccnc2O1 (configuration not stated),inactive: 6.43%,
C=CCN(CC=C)CCOc1cccc2ccccc12,inactive: -12.8%,
CCC(=O)NCCc1nc2ccccc2[nH]1,,"inconclusive [rising, full curve, poor fit]"
CC(=O)Nc1cccc(C(=O)/C=C/c2ccc(C)cc2)c1,,"inconclusive [cytotoxic, single point]"
Cc1ccc(C=Nc2ccccc2C(N)=O)s1,,active: 3.26 µM
O=C(NNC(=O)C1CCCO1)c1ccc(F)cc1 (configuration not stated),inactive: 3.12%,
COc1ccccc1C(=O)Nn1c(C2CCC2)nc2ccccc2c1=O,,"inconclusive [cytotoxic, single point]"
Nc1nc(N2CCN(C/C=C/c3ccccc3)CC2)nc2ccccc12,,"inconclusive [cytotoxic, single point]"
CCCCNS(=O)(=O)CCNCCc1ccccc1,inactive: 9.77%,
COC(=O)c1[nH]c(C)c(/C(O)=C2\C(=O)C(=O)N(CCN(C)C)C2c2ccccc2OC)c1C (configuration not stated),,"inconclusive [cytotoxic, full curve, poor fit]"
COCCNC(=O)c1cc2c(=O)n3cccc(C)c3nc2n1C,inactive: -2.12%,
Cc1ccc(S(=O)(=O)Nc2ccccc2/C=N/c2nc3ccccc3n2C)cc1,,active: 20.6 µM
Cc1ccccc1Nc1nc(N)nc(CCl)n1,,active: 14.6 µM
COc1ccc(C(O)c2ncc(-c3cccc(OCc4ccccc4)c3)[nH]2)cc1F (configuration not stated),,"inconclusive [cytotoxic, single point]"
CC(=O)N1c2ccccc2C(C)(c2ccccc2)CC1(C)C (configuration not stated),,"inconclusive [cytotoxic, single point]"
CC1(C(=O)O)CCC(C(=O)Nc2ccc3ccccc3c2)C1(C)C (configuration not stated),inconclusive: -17.4% [cytotoxic],
O=[N+]([O-])c1ccc(N/N=C/c2cccnc2)cc1,,active: 7.31 µM
CCCOc1ccccc1-c1nc2c([nH]1)c(=O)[nH]c(=O)n2C,,"inconclusive [cytotoxic, single point]"
O=C(NCCCN1CCOCC1)c1ccc2c(c1)N(Cc1ccc(F)cc1)CCS2,,"inconclusive [cytotoxic, single point]"
O=C(O)c1cccc2cccc(-c3c4ccc(=O)c(O)c-4oc4c(O)c(O)ccc34)c12,inactive: -2.31%,
CN1CCc2c(sc(NC(=O)Cc3ccccc3)c2C#N)C1,inactive: 2.35%,
O=C1CC(c2cccs2)c2ccc3ccccc3c2N1 (configuration not stated),,"inconclusive [cytotoxic, partial curve]"

SMILES,"activity, negative = toxicity",Potency
Cc1ncc([N+](=O)[O-])n1Cc1ccccc1,inactive: -2.91%,
COc1ccc(C(=O)N2CCN(c3ccccc3)CC2)cc1S(=O)(=O)NC1CC1,inactive: -0.884%,
FC(F)(F)c1cccc(-c2nc3nc(Cl)c(Cl)nc3[nH]2)c1,inconclusive: -17.1% [cytotoxic],
CCCCOc1cc(NCc2ccccc2)c2ncn(C(C)C)c2c1,,"inconclusive [cytotoxic, single point]"
COc1ccc(NC(=O)c2nc[nH]c2C(=O)Nc2ccccc2C)cc1,,"inconclusive [cytotoxic, partial curve]"
CCOC(=O)c1ccccc1NC(=O)CSc1nc2ccncc2[nH]1,inactive: -2.78%,
CCCCn1c(SCC(=O)Nc2sc3c(c2C(N)=O)CCC3)nnc1-c1ccccc1,inactive: -28.4%,
O=c1cc(O)c2c(=O)n(C3CCCCC3)c3ccccc3c2o1,,"inconclusive [cytotoxic, single point]"
CC1(C(=O)NS(=O)(=O)c2cccc(OC(F)F)c2)CCN1C(=O)Cc1ccccc1 (configuration not stated),inactive: 2.65%,
O=C(CSc1nc(-c2ccccc2Cl)ns1)NCc1ccco1,inactive: 1.67%,
CCCC(=O)NC(Nc1cccc(C(F)(F)F)c1)C(Cl)(Cl)Cl (configuration not stated),,"inconclusive [cytotoxic, single point]"
O=C(Nc1ccccc1N1CCN(C(=O)c2ccccc2)CC1)c1ccc([N+](=O)[O-])o1,,active: 16.4 µM
N/C(Cc1ccc(Cl)cc1)=N\OC(=O)C1CCCCC1,inactive: -3.17%,
COc1ccc(Cc2noc(CN3CCC(c4ccncc4)CC3)n2)cc1OC,,"inconclusive [cytotoxic, single point]"
COc1cccc(CNc2nc(NCc3ccccc3OC)nc3ccsc23)c1,,active: 23.1 µM
CC(C)N(C(=O)c1ccc2nc(-c3ccccc3)c(-c3ccccc3)nc2c1)C(C)C,inactive: -23.2%,
NNC(=O)c1ccc(Cn2cccn2)o1,inactive: -1.9%,
COc1ccc(-n2nc([N+](=O)[O-])c(=NCc3cccnc3)n2O)cc1,inactive: 0.429%,
CCCC(=O)NC1CCc2cc(OC)c(OC)c(OC)c2-c2ccc(OC)c(=O)cc21 (configuration not stated),,"inconclusive [cytotoxic, full curve, poor fit]"
CCOc1cc(/C=N/N2CCOCC2)ccc1OCc1ccc(C(=O)OC)o1,inconclusive: -1.66% [cytotoxic],
CCN1C(=O)CSC1=NC1C2CC3CC(C2)CC1C3 (configuration not stated),,"inconclusive [cytotoxic, single point]"
O=C1CSC(=S)N1CC1CCCO1 (configuration not stated),inconclusive: -5.87% [cytotoxic],
O=C(NC1CCCc2ccccc21)c1n[nH]c(=O)c2ccccc12 (configuration not stated),,active: 9.2 µM
O=[N+]([O-])c1cc(Br)c2nsnc2c1N1CCOCC1,,"inconclusive [cytotoxic, partial curve]"
COc1ccccc1C(=O)CC(=O)C(=O)Nc1cccc([N+](=O)[O-])c1C,,"inconclusive [cytotoxic, single point]"
